Among all 48,000 compounds or so, about 550 (1.1%) were called active. Roughly 4% stayed inconclusive and do not appear here. Rule as the data show it: active = potency below about 15 µM; inconclusive = mostly about 16 µM to 33 µM; inactive = weaker than that. The list shows a part of the results.
Molecular target: Lysosomal acid glucosylceramidase (Homo sapiens) (UniProt P04062)
Assay: Glucocerebrosidase;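 also: the screen sought inhibitors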
Details: purified enzyme, resorufin glucoside fluorescence (screen aimed at inhibitors), 20 min
Summary of the method: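 Normal human glucocerebrosidase (0.2 nM final) was assayed with resorufin β-D-glucopyranoside (30 uM final) in 50mM citric acid/KH2PO4, 10mM sodium taurocholate, 0.01% tween-20, pH 5.9. Compounds were titrated; fluorescence (Ex 548, Em 600) read after 20 min at RT.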
Potency is read from the fitted curve at half-maximal effect.

Sequence of UniProt P04062 (P04062 whole entry, looked up): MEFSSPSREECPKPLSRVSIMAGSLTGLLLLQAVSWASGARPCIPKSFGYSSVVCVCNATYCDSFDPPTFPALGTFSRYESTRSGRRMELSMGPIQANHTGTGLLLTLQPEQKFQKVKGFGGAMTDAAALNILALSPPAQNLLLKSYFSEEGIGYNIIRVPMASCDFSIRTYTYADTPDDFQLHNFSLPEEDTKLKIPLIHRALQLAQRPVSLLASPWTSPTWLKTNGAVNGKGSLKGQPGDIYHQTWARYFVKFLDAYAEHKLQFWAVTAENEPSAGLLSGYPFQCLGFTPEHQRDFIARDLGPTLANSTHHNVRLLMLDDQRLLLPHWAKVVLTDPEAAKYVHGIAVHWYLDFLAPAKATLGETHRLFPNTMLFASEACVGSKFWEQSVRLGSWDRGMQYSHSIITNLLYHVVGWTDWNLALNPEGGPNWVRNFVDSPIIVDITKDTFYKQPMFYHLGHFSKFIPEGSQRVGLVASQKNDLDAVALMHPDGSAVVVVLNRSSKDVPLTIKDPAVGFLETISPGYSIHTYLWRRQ

Potency, active:
CC(=O)NC(Cc1ccc(F)cc1)C(=O)NC1CCN(c2nnnn2-c2ccccc2)CC1 (stereo unspecified) 5.79 µM

Potency, inactive:
CSC1=C(C#N)C(c2cccc(Br)c2)CC(=O)N1 (stereo unspecified) > 76.9 µM, O=C(O)CCN1C(=O)C(=C2CCCCCC2)SC1=S > 76.9 µM, CC1(C)Cn2c(nnc2-c2ccccc2)S1 > 76.9 µM, CCNc1nc(N)nc(Oc2ccc(OCCOc3ccc(Cl)cc3Cl)nn2)n1 > 76.9 µM, CCCOC(=O)CCn1c(=S)oc2ccccc21 > 76.9 µM, Cc1onc(-c2ccccc2Cl)c1C(=O)Nc1cccc2nsnc12 > 76.9 µM, Cc1nc2ncnn2c(C)c1CCC(=O)Nc1csc(N)n1 > 76.9 µM, Cc1cc(C(=O)Nc2sc(C)c(C)c2C#N)c(C)o1 > 76.9 µM, CCOC(=O)c1cnc(SCC(=O)Nc2sc(C)c(C)c2C#N)nc1N > 76.9 µM, Cc1cccc(C2N(c3nccs3)C(=O)C3CCCN32)c1 (stereo unspecified) > 76.9 µM, O=c1c2c([nH]c3ccccc13)CCCCCC2, O=C(Nc1cccc2nsnc12)c1cccs1 > 76.9 µM, O=C(O)CC(C(=O)O)c1cn(Cc2ccccc2)c2ccccc12 (stereo unspecified) > 76.9 µM, CCOC(=O)C1CCN(C(=O)c2ccccc2N(C)S(C)(=O)=O)CC1 > 76.9 µM, COc1cccc(OC)c1C(=O)N1CCOCC1 > 76.9 µM, CCOc1ccccc1N=C1NC(=O)CS1 > 76.9 µM, COC(=O)NCC1(C)CC(NC(=O)OC)CC(C)(C)C1 (stereo unspecified) > 76.9 µM, Cc1cc(NC(=O)CCC(=O)N(c2cccnc2)C(C(=O)NC2CCCC2)c2ccccc2F)no1 (stereo unspecified) > 76.9 µM, Cc1nc2ccccc2n1CC(O)Cn1c(C(F)(F)F)nc2ccccc21 (stereo unspecified) > 76.9 µM, CCCOc1ccccc1C1NC(=O)NC(C)=C1C(=O)OCCOCC (stereo unspecified) > 76.9 µM, Brc1cc2[nH]cnc2c2ccccc12 > 76.9 µM, Cc1csc(NC(=O)CCCSc2nc3ccccc3s2)n1 > 76.9 µM, O=C(CC1Nc2ccccc2NC1=O)NCC1COc2ccccc2O1 (stereo unspecified) > 76.9 µM, CN(CC(=O)N1CCCC1)S(=O)(=O)c1cc(Cl)ccc1Cl > 76.9 µM, O=C(NCc1nnc2n1CCCCC2)c1ccc(Cl)cc1Cl > 76.9 µM, O=C(c1ccccc1)N(c1ccccc1)C1C=CS(=O)(=O)C1 (stereo unspecified) > 76.9 µM, CC12CC(NC(=O)N1c1cccc(C(=O)NCc3ccc4c(c3)OCO4)c1)c1cc(Cl)ccc1O2 (stereo unspecified) > 76.9 µM, COc1cc(-c2nnc3sc(-c4ccncc4)nn23)cc(OC)c1OC > 76.9 µM, C=CCn1c(=O)c2ccccc2n2c(SCc3c(C(=O)OCC)oc4ccccc34)nnc12 > 76.9 µM, N#Cc1ccsc1NC(=O)CSc1ncn[nH]1 > 76.9 µM, N#Cc1cnn(Cc2ccccc2)c1N > 76.9 µM, O=C(CSc1nc2ccccc2n1CC(=O)N1CCCC1)Nc1ccc2c(c1)OCO2 > 76.9 µM, Cc1nc2nc(SCC(=O)C(C)(C)C)[nH]c2cc1Br > 76.9 µM, O=C(Nc1ccc2c(c1)OCO2)N1CCN(c2ncccn2)CC1 > 76.9 µM, Cc1ccc(C)c(C(=O)CN2C(=O)CCC2=O)c1 > 76.9 µM, CCOc1ccc(C)cc1S(=O)(=O)N1CCCCC1 > 76.9 µM, COc1ccc(-c2nnc(SCC(=O)N3CCCCC3)o2)c(OC)c1 > 76.9 µM, Clc1cccc(OCCn2cncn2)c1Cl > 76.9 µM, O=C(O)CCCN1C(=O)NC2NC(=O)NC21 (stereo unspecified) > 76.9 µM, O=C(Nc1ccc2c(c1)nc1n2CCN(C2CCCCC2)C1)c1ccco1, COc1ccc(C2=NCC(CSc3nnnn3C)S2)cc1 (stereo unspecified) > 76.9 µM, COc1ccccc1N1CCN(c2ccc(-c3ccccc3)nn2)CC1 > 76.9 µM, Cc1ccc(N2CCN(CC(O)COC3CCCCC3)CC2)cc1 (stereo unspecified) > 76.9 µM, Cc1ccc(NC(=O)CN2C(=O)NC3(CCC(C)CC3)C2=O)c(Cl)c1 (stereo unspecified) > 76.9 µM, Cc1ccc(-n2nc3c(c2NC(=O)C(C)(C)C)CSC3)c(C)c1 > 76.9 µM, COc1cccc(-n2c(SCC(=O)NCCc3ccccc3)nnc2-c2ccoc2C)c1 > 76.9 µM, O=C(Nc1ccccc1)N1CCn2c(nc3ccccc32)C1 > 76.9 µM, O=C(Nc1ccc(Cl)cc1)OCCn1nnnc1C(c1ccccc1)N1CCOCC1 (stereo unspecified) > 76.9 µM, O=C(O)COCC(=O)Nc1ccc2c(c1)CCC2 > 76.9 µM, CN(C)CCN1C(=O)C(=O)/C(=C(/O)c2ccc(F)cc2)C1c1ccccc1 (stereo unspecified) > 76.9 µM, CCOC(=O)C(NC(=O)c1ccc(OC)cc1)(OCC1(CC)COC1)C(F)(F)F (stereo unspecified) > 76.9 µM, Cn1c(-c2ccccc2)cnc1SCC(N)=O > 76.9 µM, Cn1nnc(NC(=O)COc2ccc(C3CCCCC3)cc2)n1 > 15.4 µM, CN(C)C(=O)CN(c1ccc(F)c(Cl)c1)S(C)(=O)=O > 76.9 µM, COC(=O)c1ccccc1NC(=O)N1c2ccccc2CC1C (stereo unspecified) > 76.9 µM, COc1ccc(-n2c(SCC(N)=O)nnc2-c2ccccc2F)cc1 > 76.9 µM, O=c1oc(-c2cccc(S(=O)(=O)N3CCOCC3)c2)nc2ccccc12 > 76.9 µM, O=C(COc1ccc(Cl)cc1)N1CCN(C(=O)c2cccc(F)c2)CC1 > 76.9 µM, CCOC(=O)CC(C#N)c1c[nH]c2ccccc12 (stereo unspecified) > 76.9 µM, CCN(CC(=O)Nc1ccccc1C(=O)OC)S(=O)(=O)c1ccccc1 > 76.9 µM

Source: PubChem BioAssay AID360 (National Center for Advancing Translational Sciences (NCATS), 2006)
